Here are results for 3 substances from patent US10364280B2, “Polypeptide” (AFFIBODY AB, priority 2015, dated 2019).

One test deals with T1, hB7-H4 (Homo sapiens, UniProt Q7Z7D3).
T1 construct: purchased R&D Systems 6576-B7-50
T1 sequence (Q7Z7D3 25-282): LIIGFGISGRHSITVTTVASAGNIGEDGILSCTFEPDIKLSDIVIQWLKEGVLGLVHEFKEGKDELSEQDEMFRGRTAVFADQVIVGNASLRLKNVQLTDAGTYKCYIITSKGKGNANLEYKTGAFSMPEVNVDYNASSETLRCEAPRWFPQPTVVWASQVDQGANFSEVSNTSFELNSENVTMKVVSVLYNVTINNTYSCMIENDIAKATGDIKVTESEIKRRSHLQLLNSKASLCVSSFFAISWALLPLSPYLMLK
Briefly: ELISA specificity test against biotinylated control protein hB7-H4. Type of test: binding. Particulars: control protein added at 8 nM. How it is done:
(§1) The binding of Z variants to hPD-L1 was analyzed in ELISA assays. Half-area 96-well ELISA plates (Costar, cat. no. 3690) were coated at 4° C. overnight with 2 μg/ml of an anti-ABD goat antibody (produced in-house) diluted in coating buffer (50 mM sodium carbonate, pH 9.6; Sigma, cat. no. C3041). The antibody solution was poured off and the wells were washed in water and blocked with 100 μl of PBSC (PBS supplemented with 0.5% casein; Sigma, cat. no. C8654) for 1 to 3 h at RT. The blocking solution was discarded and 50 μl periplasmic solutions, diluted 1:1 with PBST 0.05%, were added to the wells and incubated for 1.5 to 2.5 h at RT under slow agitation. As a blank control, PBST 0.05% was added instead of a periplasmic sample. The supematants were poured off and the wells were washed 4 times with PBST 0.05%. Then, 50 μl of biotinylated hPD-L1 at a concentration of 0.32 nM in PBSC was added to each well. The plates were incubated for 1.0 h at RT followed by washes as described above. Streptavidin conjugated HRP (Thermo Scientific, cat no. N100) diluted 1:30,000 in PBSC, was added to the wells and the plates were incubated for approximately 1 h. After washing as described above, 50 μl ImmunoPure TMB substrate (Thermo Scientific, cat no. 34021) was added to the wells and the plates were treated according to the manufacturers recommendations. The absorbance at 450 nm was measured using a multi-well plate reader, Victor^3 (Perkin Elmer).
(§2) A selection of PD-L1 binding Z variants was subjected to an analysis of the response against a dilution series of biotinylated hPD-L1 following the procedure described above. The Z variants, Z13166 (SEQ ID NO:1), Z13359 (SEQ ID NO:3) and Z13398 (SEQ ID NO:4) were diluted 1:1 in PBST 0.05% and biotinylated hPD-L1 was added at a concentration of 40 nM and diluted stepwise 1:4 down to 32 μM. […] Data were analyzed using GraphPad Prism 5 and non-linear regression and EC50 values (the half maximal effective concentration) were calculated.
Background: An ELISA detects its analyte on a solid surface through an enzyme-linked reagent.

The subject of another test is IgG-Fc. Kind of test: ELISA specificity test against biotinylated control protein IgG-Fc. Type of test: binding, human. Particulars: control protein added at 8 nM. As to the method:
as §1, §2

A further test has as its target T2, hPD-L1 (Homo sapiens, UniProt Q9NZQ7).
T2 construct: purchased R&D Systems 156-B7-100
Kind of test: Biacore kinetic analysis on immobilized hPD-L1. Type of test: binding. Particulars: His6-tagged Z variants; approximate, based on 5 and 50 nM injected; 1:1 interaction model. As to the method:
Kinetic constants (ka and kd) and affinities (KD) for hPD-L1 were determined for the His6-tagged Z variants Z13166 (SEQ ID NO:1), Z13178 (SEQ ID NO:2), Z13359 (SEQ ID NO:3) and Z13398 (SEQ ID NO:4) using a Biacore 2000 instrument (GE Healthcare). All four Z variants were also tested for binding against the sequence-related proteins hPD-L2, hB7-H3, hB7-H4. Z13166 and Z13398 were further analyzed against mPD-L1 (mouse PD-L1 Fc Chimera, R&D Systems, cat. no. 1019-B7) and Z13178 and Z13359 were analyzed against rhesus monkey PD-L1 (RhPD-L1; rhesus PD-L1/Fc Chimera, Sino Biological Inc., cat. no. 90251-C02H)
hPD-L1, hPD-L2, hB7-H3, hB7-H4, mPD-L1 and RhPD-L1 were immobilized in separate flow cells on the carboxylated dextran layer of different CM5 chip surfaces (GE Healthcare, cat. no. BR100012). The immobilization was performed using amine coupling chemistry according to the manufacturers protocol and using HBS-EP (0.01 M HEPES pH 7.4, 0.15 M NaCl, 3 mM EDTA, 0.005% v/v Surfactant P20, GE Healthcare, cat. no. BR100188) as running buffer. In a first set of experiments, in which Z13166 and Z13398 were analyzed, the ligand immobilization levels on the surfaces were 468-894 RU for hPD-L1, 482 RU for mPD-L1, 537-742 RU for hPD-L2, 383 RU for hB7-H3, and 538-659 RU for hB7-H4. One flow cell surface on each chip was activated and deactivated for use as blank during analyte injections. In the kinetic experiment, HBS-EP was used as running buffer and the flow rate was 50 μl/min. The analytes, i.e. the Z variants, were each diluted in HBS-EP buffer within a concentration range of 1000 to 0.01 nM and injected for 5 min, followed by dissociation in running buffer for 15-25 min. After dissociation, the surfaces were regenerated with one or two injections of 0.1% SDS. Kinetic constants were calculated from the sensorgrams using the Langmuir 1:1 model of BiaEvaluation software 4.1 (GE Healthcare). In a second set of experiments, in which Z13178 and Z13359 were analyzed, the ligand immobilization levels on the surfaces were 1030 RU for hPD-L1, 1060 RU for RhPD-L1, 1070 RU for hPD-L2, 1090 RU for hB7-H3, and 770 RU for hB7-H4. Analyses were performed essentially as described above for the first set of experiments, but using a flow rate of 30 μl/min and the Z variants were injected at concentrations of 5 and 50 nM over chips immobilized with hPD-L1 and RhPD-L1, and at a concentration of 500 nM over immobilized hPD-L2, hB7-H3 and hB7-H4,
For orientation: Surface plasmon resonance follows binding to a sensor surface in real time, without labels.

T2 sequence (Q9NZQ7 19-239 limits assumed): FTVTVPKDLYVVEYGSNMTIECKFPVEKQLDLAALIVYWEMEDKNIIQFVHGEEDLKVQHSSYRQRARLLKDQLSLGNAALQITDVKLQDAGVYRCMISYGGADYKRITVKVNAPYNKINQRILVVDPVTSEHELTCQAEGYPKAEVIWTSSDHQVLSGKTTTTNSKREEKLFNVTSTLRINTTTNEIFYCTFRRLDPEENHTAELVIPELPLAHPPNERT

As a reminder, the Kd is a measure of binding affinity in units of concentration. Read a low Kd as higher affinity. On to “Z13359: PD-L1 binding Z variant, 58 amino acid residues, SEQ ID NO:3; tested as ABD fusion or His6-tagged (VDAKYAKERTIAVWEIMDLPNLTSWQRGAFIDKLHDDPSQSSELLSEAKKLNDSQAPK; Engineered PD-L1 binding polypeptide)”, for which the “response against hB7-H4 (FIG. 2 legend prints hB7-H7) in ELISA” value (shortened to “response against hB7-H4”) with hB7-H4 is reported as “no response”. Further, the “response against IgG-Fc in ELISA” value in the test on IgG-Fc is given as “no response”. In the test with hPD-L1, the affinity, expressed as Kd, was 15 nM; the “ka (1/Ms) hPD-L1” value was found to be 1.9e+06 M⁻¹ s⁻¹; the “kd (1/s) hPD-L1” value amounted to 0.028 s⁻¹.

“Z13166: PD-L1 binding Z variant, 58 amino acid residues, SEQ ID NO:1; tested as ABD fusion or His6-tagged (VDAKYAKERTVAVWEIVQLPNLTAWQKGAFINKLHDDPSQSSELLSEAKKLNDSQAPK; Engineered PD-L1 binding polypeptide)”: in the test with hB7-H4, the “response against hB7-H4” value was “no response”. Moreover, the “response against IgG-Fc in ELISA” value in the test with IgG-Fc is given as “no response”. In the test with hPD-L1, the Kd is 0.4 nM, the “ka (1/Ms) hPD-L1” value is 7.4e+06 M⁻¹ s⁻¹ and the “kd (1/s) hPD-L1” value was found to be 0.0026 s⁻¹.

For the substance “Z13398: PD-L1 binding Z variant, 58 amino acid residues, SEQ ID NO:4; tested as ABD fusion or His6-tagged (VDAKYAKERTMATWEIVQLPNLTARQKGAFIWKLHDDPSQSSELLSEAKKLNDSQAPK; Engineered PD-L1 binding polypeptide)”, the “response against hB7-H4” value with hB7-H4 is reported as “no response”. The “response against IgG-Fc in ELISA” value in the test on IgG-Fc was “no response”. Besides, in the test with hPD-L1, binding was put at a Kd of 0.73 nM, the “ka (1/Ms) hPD-L1” value came to 5.1e+06 M⁻¹ s⁻¹ and the “kd (1/s) hPD-L1” value came to 0.0037 s⁻¹.
